Laboratory results taken from ChEMBL document CHEMBL4888484, “Replenishing the malaria drug discovery pipeline: Screening and hit evaluation of the MMV Hit Generation Library 1 (HGL1) against asexual blood stage Plasmodium falciparum ,using a nano luciferase reporter read-out” (2022).
About 540 (0.36%) of roughly 150,000 compounds showed an effect of 50% or more. This is one part of the list.

system: Plasmodium falciparum; test: Primary screen in NF54 nanoGlo assay, in single point, at 2uM, 72h; a lower Z score goes with more inhibition; assay type: functional, Erythrocyte; details: timepoint 72 hour

Compound | % Inhibition [%] | Z score
Cn1nc(CN(C(=O)c2ccco2)C2CCCC2)c2c1CCC2 | -7 | 1.29
COCc1ccc(CN2CCC(n3nccc3NC(=O)C3CCCC3)CC2)o1 | 1 | -0.11
N#CCC[C@H](C#N)CN1C(=O)NC2(Cc3ccccc3C2)C1=O | -8 | 1.2
CCOc1ccc(N2CCN(CC(=O)NCCCN3CCCC3=O)C2=O)cc1 | -6 | 0.96
COc1ccc2ncn(CCN3CCCC3=O)c(=O)c2c1 | -4 | 0.46
O=C1CN(C(=O)C[C@H]2CCCOC2)c2cc(F)c(F)cc2N1 | -4 | 0.59
OC1(c2nc(-c3ccc(Br)o3)no2)CCCCC1 | 13 | -1.71
Cc1nn(CCNc2cccc(C#N)n2)c(C)c1C | -15 | 2.95
O=C(O)CCNC(=O)[C@H]1CC[C@H](Cn2nnc3ccccc3c2=O)CC1 | -15 | 2.01
CN(C)c1ncccc1NC(=O)C1C2CCCC21 (centres undefined) | 1 | -0.19
C[C@@H](C(=O)Nc1nc2c(s1)CCCC2)n1cccn1 | -15 | 2.06
COc1cc(NC(c2ccccc2)c2ccccc2)cc(OC)c1OC | 12 | -1.58
COc1cccc(CNC(=O)c2ccc(CN3CC(=O)N4CCCC[C@H]4C3=O)cc2)c1 | -6 | 0.71
O=C(NCCCc1ccccc1)c1cc2n(n1)CCN(Cc1ccccc1Cl)C2=O | -12 | 1.34
COc1ccc(F)cc1C(=O)N1C[C@@H](CC(=O)O)[C@@H](c2c[nH]nn2)C1 | 0 | -0.02
O=C(NC1(C(=O)O)CCCCC1)c1ccc2c(c1)OCCNC2 | 1 | -0.07
COCCN1C[C@@H](c2nc(-c3ccc(F)c(C)c3)no2)CC1=O | -9 | 1.27
CC1(C)C(c2ccccc2)CCN1C(=O)Nc1cnc2c(c1)CC(N)CC2 (centres undefined) | -2 | 0.23
CC(C)CN(Cc1ccsc1)C(=O)c1ncc(F)cc1F | -3 | 0.45
COC(=O)c1cccc(NC(=O)c2cn(C[C@H](O)c3ccccc3)nn2)c1 | -5 | 1
Cn1ncc2c(=O)n(Cc3nc(-c4c(F)cccc4F)cs3)cnc21 | -14 | 1.97

Compound | % Inhibition [%] | Z score
CN(Cc1ccco1)S(=O)(=O)N(C)C1CCCCC1 | 3 | -0.4
Cc1cc(S(=O)(=O)Nc2cnoc2C)sc1Cl | 13 | -2.47
COc1ccccc1CC1CCCN(C(C)c2nnc(C)o2)C1 (centres undefined) | -3 | 0.44
Cc1nc(C)c(C(=O)Nc2ccc3c(c2)OCCO3)s1 | -6 | 1.02
CCOc1ccc(Cl)cc1CN(C)C(=O)[C@@H]1CCC(=O)NC(=O)N1 | -5 | 0.53
CN(CCCc1cccnc1)C[C@H]1CCCCN1C | -13 | 1.15
COc1cc2c(cc1OC)CN(C(=O)OC(C)(C)C)[C@H](C(=O)NCc1ccco1)C2 | -8 | 1.59
CC(C)CCc1ccc(N2C(=O)N[C@@](C)(CCF)C2=O)nc1 | -5 | 0.64
Cc1ccccc1C(NC(C)CS(=O)(=O)c1ccccc1)C1CC1 (centres undefined) | -6 | 0.58
Cc1nc([C@H](C)NC(=O)c2cc3ncccn3n2)c(C)s1 | -9 | 1.42
O=C(N1CCCC1)[C@]1(F)CCCN(Cc2cccnc2)C1 | -30 | 2.61
CCN(Cc1cscn1)[C@H]1CCOC(C)(C)C1 | 4 | -0.93
COCCNc1nc2c(c(N3CCCCCC3)n1)CCNCC2 | 5 | -0.97
CCC1(CC)C(OC)CC1N(C)CCS(N)(=O)=O (centres undefined) | 0 | -0.06
CN(C)[C@@H](CNC(=N)Nc1ccccc1)c1cccs1 | -1 | 0.15
CC1(C)CN(C(=O)CN2CC[C@H](Nc3ncccn3)C2)CCO1 | -7 | 0.93
CC(=O)N1CCC(NC(=O)c2cc3c(C)nn(-c4ccccc4)c3s2)CC1 | -7 | 1
COC(C)(C)C[C@H](C)NCCn1nc(C)c(Cl)c1C | 1 | -0.11
CC(C)Cn1nc2n(c1=O)CC1CCC(C2)N1C(=O)c1cc[nH]n1 (centres undefined) | -2 | 0.22
CC1CCCC(OCC(=O)NC(C)CCN2CCOCC2)C1 (centres undefined) | 4 | -0.58
CC(=O)N1CC[C@]23C(=O)N(CC(=O)N(C)CCCOc4cccc(c4)[C@H]12)c1ccccc13 | -4 | 0.72
